Assay results taken from the supplement of paper PMC7826260.
Some of the results follow. Each Rep nickase domain was tested in vitro on the same pool of single strands (1 h at 37 °C, 3 µM enzyme); the outer parts of the 90-letter strands are left off. Values are log2 of uncut reads against the no-enzyme pool; more negative means more cut, near 0 not cut, and no call is made. Reads are scaled to the total, so uncut sequences can rise above 0 when many others are cut.

What was measured:
Test in all cases: uncleaved DNA left, log2 of reads against the no-enzyme library (log2 ratio); higher = less cleavage (more negative = more Rep cleavage of the k-mer); sequences stand for … in CTCGTCCG…ACCGGAGA
[1] = tested on: T1, Rep nickase domain of Muscovy duck circovirus
T1 sequence (Rep 1-111, printed without the tag): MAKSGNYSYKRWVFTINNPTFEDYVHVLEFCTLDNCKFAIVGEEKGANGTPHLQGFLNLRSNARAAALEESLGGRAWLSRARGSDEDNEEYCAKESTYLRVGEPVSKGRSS
Experimental: (§1)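 A pool of 90-nt single-stranded DNAs with seven random bases just before the constant AC of the nick site (name = the seven bases) was cut by 3 µM recombinant His6-SUMO-tagged Rep nickase domain (300 nM DNA, 50 mM HEPES pH 8.0, 50 mM NaCl, 1 mM MnCl2, 1 h, 37 °C, three replicates). Uncut DNA was amplified and sequenced.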

[2] = tested on: T2, Rep nickase domain of banana bunchy top virus
T2 sequence (Rep 1-94, printed without the tag): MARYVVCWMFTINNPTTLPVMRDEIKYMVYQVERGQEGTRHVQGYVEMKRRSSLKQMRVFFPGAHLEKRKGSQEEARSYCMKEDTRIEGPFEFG
Experimental: as §1

[3] = tested on: T3, Rep nickase domain of cabbage leaf curl virus
T3 sequence (Rep 1-116, printed without the tag): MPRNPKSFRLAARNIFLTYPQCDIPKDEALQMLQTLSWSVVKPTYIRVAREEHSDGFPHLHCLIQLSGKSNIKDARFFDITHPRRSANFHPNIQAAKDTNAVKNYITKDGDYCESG
Experimental: as §1

[4] = tested on: T4, Rep nickase domain of chickpea chlorotic dwarf virus
T4 sequence (Rep 1-124, printed without the tag): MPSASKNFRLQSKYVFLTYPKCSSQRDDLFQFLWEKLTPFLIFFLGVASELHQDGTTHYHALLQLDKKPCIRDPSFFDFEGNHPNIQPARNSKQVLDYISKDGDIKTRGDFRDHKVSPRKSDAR
Experimental: as §1

[5] = tested on: T5, Rep nickase domain of faba bean necrotic yellows virus
T5 sequence (Rep 1-98, printed without the tag): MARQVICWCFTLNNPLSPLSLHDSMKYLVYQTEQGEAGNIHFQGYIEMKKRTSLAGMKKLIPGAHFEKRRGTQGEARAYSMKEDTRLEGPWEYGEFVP
Experimental: as §1

[6] = tested on: T6, Rep nickase domain of maize striate mosaic virus
T6 sequence (Rep 1-117, printed without the tag): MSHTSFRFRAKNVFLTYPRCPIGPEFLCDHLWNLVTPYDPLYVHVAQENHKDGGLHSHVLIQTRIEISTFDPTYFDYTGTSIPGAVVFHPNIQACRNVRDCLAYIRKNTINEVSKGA
Experimental: as §1

[7] = tested on: T7, Rep nickase domain of porcine circovirus 2
T7 sequence (Rep 2-116, printed without the tag): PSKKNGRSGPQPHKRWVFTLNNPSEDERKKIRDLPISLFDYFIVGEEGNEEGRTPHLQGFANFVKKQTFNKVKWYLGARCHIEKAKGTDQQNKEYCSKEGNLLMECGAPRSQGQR
Experimental: as §1

[8] = tested on: T8, Rep nickase domain of tomato golden mosaic virus
T8 sequence (Rep 1-124, printed without the tag): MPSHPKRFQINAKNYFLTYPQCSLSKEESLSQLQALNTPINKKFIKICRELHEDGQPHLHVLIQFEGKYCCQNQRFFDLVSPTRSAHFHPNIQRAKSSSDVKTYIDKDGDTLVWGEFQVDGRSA
Experimental: as §1

[9] = tested on: T9, Rep nickase domain of tomato yellow leaf curl virus
T9 sequence (Rep 1-136, printed without the tag): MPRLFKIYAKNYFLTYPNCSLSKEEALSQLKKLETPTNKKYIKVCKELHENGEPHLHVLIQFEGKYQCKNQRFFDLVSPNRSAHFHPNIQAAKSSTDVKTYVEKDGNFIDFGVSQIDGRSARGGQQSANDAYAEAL
Experimental: as §1

[10] = tested on: T10, Rep nickase domain of wheat dwarf virus
T10 sequence (Rep 1-137, printed without the tag): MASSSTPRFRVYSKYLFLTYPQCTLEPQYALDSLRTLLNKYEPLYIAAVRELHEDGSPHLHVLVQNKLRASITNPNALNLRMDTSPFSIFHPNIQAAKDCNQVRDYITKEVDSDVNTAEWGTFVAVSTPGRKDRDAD
Experimental: as §1

Sequence	uncleaved DNA left (log2) [1]	uncleaved DNA left (log2) [2]	uncleaved DNA left (log2) [3]	uncleaved DNA left (log2) [4]	uncleaved DNA left (log2) [5]	uncleaved DNA left (log2) [6]	uncleaved DNA left (log2) [7]	uncleaved DNA left (log2) [8]	uncleaved DNA left (log2) [9]	uncleaved DNA left (log2) [10]
TTACTTT	0.0476	-0.0262	-0.0908	-2.68	0.104	-0.352	-0.266	0.0625	0.136	-0.0471
TTGCTCC	-0.118	-0.175	-0.188	-0.472	-0.0377	-0.838	-0.0384	-0.214	-0.0778	-0.183
TGGGAGT	0.206	0.143	0.815	1.73	-0.108	2.06	0.241	0.0359	0.0496	0.212
TGCCATG	0.0315	0.0546	-0.24	-0.306	-0.124	-0.434	0.0352	-0.0436	0.00467	-0.0263
GACCTAC	0.12	0.0403	0.24	-0.131	0.00708	0.398	0.00288	0.134	0.104	0.0599
GTGATTA	-0.008	-0.0156	0.288	0.843	0.0372	1.82	0.0446	0.158	-0.0188	0.117
AAAGAGC	0.0585	0.0365	-0.147	-0.197	-0.0491	-0.889	0.0945	0.0257	0.0591	-0.0353
CGTTCGG	-0.0269	-0.0678	0.202	0.942	-0.113	1.16	-0.0615	-0.0474	-0.104	-0.101
TGTTACG	-0.147	-0.106	-1.01	-1.04	-0.033	-1.14	-0.865	-0.232	-0.0494	-0.208
TCACTCA	-0.133	-0.0353	-0.116	-1.3	0.0137	-0.449	-0.162	-0.0733	0.0198	-0.0849
ACACGTT	-0.0125	0.0702	-0.904	-2.32	0.105	-0.805	-0.0562	0.0547	-0.0459	-0.359
GTGACTT	0.0642	-0.0703	0.706	1.67	-8.54e-06	2.13	0.15	-0.0599	0.0326	0.178
CGCCGAT	0.0956	-0.0587	0.0973	0.381	0.0432	0.394	-0.00129	-0.00125	-0.0204	-0.0322
GATCTGG	0.182	0.0669	0.372	0.756	0.152	0.556	0.189	0.111	0.0198	0.0767
GTAGGGA	0.0608	0.082	0.382	0.971	0.0862	1.07	0.118	0.127	0.109	0.206
TTCACGT	0.0395	-0.059	0.188	0.0573	-0.0304	0.37	0.00827	-0.0986	-0.0563	-0.0494
CGTTGAC	0.0939	-0.153	-0.164	-0.0444	-0.105	-0.513	0.127	-0.1	-0.146	-0.203
GAATAAG	0.00623	0.0154	-0.704	-0.264	-0.00975	-0.939	0.0551	-0.0306	-0.0451	-0.0924
CACGATT	-0.105	-0.0895	-0.497	-2.67	-0.00291	-0.442	-1.59	-0.0489	-0.139	-0.0492
CGCAGAC	-0.0352	-0.0924	-0.0479	0.297	-0.105	0.0951	0.144	-0.00705	-0.122	0.0155
AGACTAC	0.0745	-0.108	0.159	-0.125	-0.0511	1.05	0.042	-0.274	-0.0228	-0.13
AGAATGT	0.0453	-0.00359	0.04	0.211	0.122	0.13	-0.183	-0.05	0.0295	0.0899
TGCATAG	0.0874	0.0125	-0.599	-0.48	0.156	-1.25	0.203	0.0555	0.0694	0.00465
CTTTCCC	-0.00187	0.0629	0.0731	-0.34	0.115	-0.432	-0.158	-0.0979	0.0744	0.112
CCCCGCG	-0.0571	0.0132	-0.632	0.0681	-0.0371	-0.543	0.097	0.0294	-0.0275	-0.163
TGCGGAT	-0.0938	-0.179	0.152	1.15	-0.147	1.5	0.13	0.0499	-0.113	-0.0397
CCTGCAT	-0.0373	-0.00894	-0.389	-0.753	-0.0484	-0.843	-0.0307	-0.0135	-0.0815	-0.116
GTAGTTG	0.0376	-0.0922	-0.00937	0.287	-0.00286	0.188	0.0458	0.0315	0.0437	0.101
TTAGACG	0.0902	-0.0566	-0.515	-0.715	0.105	-0.963	0.11	-0.0304	0.0834	-0.0163
